This passage reports self-cleavage results from the RNAGym collection of RNA variant scans (doi:10.7554/elife.90254).

To fix the notation:
B1: LINE1-full (parent)
chain: UACGUAGGUGGUUUUCCCCUGAUAGUGCUAAGGGGGCCUGGAAGUUUGGACUGGGCAGAGCUCAACACAGCGUGGCAAAGUGGCUGUGGCUAGACUGCCUCUCUGGAUUCCUCGUCACUCAGCAGGGCAUCUCUGAGAGAAAUGCC

Read counts are not given, so values of variants with three or more changes are uncertain.

In this data set the parent is B1. Put plainly: self-cleavage, relative activity (ratio to wild type); higher = more cleavage; in vitro, sequencing; the parent is a self-cleaving ribozyme.
In the case of UACGUAGGUGGCAUUCCCCUGUUAGUGCUAAGGGGGCCUGGAAGUUUGGACAGGGCAGAGCUCAACACAGCGUGGCAAAGUGGCUGUGGCUAGACUGCCUCUCUGGAUUCCUCGUCACUCAGCAGGGCAUCUCUGUGAGAAAUGCC [U12C U13A A22U U52A A136U], the self-cleavage came to 1.38.
As for UACGUAGGUGGCUCUCCCCUGAUAGUGCUAAGGGGGCCUGGAAGUUUGGACUGGGCAGAGCUCAACACAGCGUGGCAAAGUGGCUGUGGCUAGACUGCCUCUCUGGAUUCCUCGUCACUCAGCAGGGCAUCUCUGUGAGAAAUGCC [U12C U14C A136U], the figure is 0.56; as for UACGUAGGUGGCCUUCCCCUGAUAGUGCUAAGGGGGCCUGGAAGUUUGGACUGGGCAGAGCUCAACACAGCGUGGCAAAGUGGCUGUGGCUAGACUGCCUCUCUGGAUUCCUCGUCACUCAGCAGGGCACCUCUGAAAGAAAUGCC [U12C U13C U130C G137A], 1.19; as for UACGUAGGUGGCUUUCCCCUGAUAGUGCUAAGGGGGCCUGGAAGUUUGGACUGGGCAGAGCUCAACACAGCGUGGCAAAGUGGCUGUGGCUAAACUGCCUCUAUGGAUUCCUCGUCACUCAGCAGGGCAUCUCUGAGAGAAAUGCC [U12C G93A C103A], 0.1.
As to UACGUAGGUGGCUUUCCCCUGAUAGUGCUAAGGGGGCCUGGAAGUUUAGACUGGGCAGAGCUCAACACAGCGUGGCGAAGUGGCUGUGGCUAGACUGCCUCUCUGGAUUCCUCGUCACUCAGCAGGGCAUCUCUGAGAGAAAUGCC [U12C G48A A77G], the self-cleavage was 2.26.
Consider UACGUAGGUGGCUAACCCCUGAUAGUGCUAAGGGGGCCUGGAAGUUUGGACUGGGCAGAGCUCAACACAGCGUGGCAAAGUGGCUGUGGCUAGACUGCCUCUCUGGAUUCCUCGUCACUCAGCAGGGCAUCUCUGAGAGAAAUGCC [U12C U14A U15A], for which the self-cleavage was 0.72.
UACGUAGGUGGCCUUCCCCUGAUAGUGCUAAGGGGGCCUGGAAGUUAGGACUGGGCAGAGCUCAACACAGCGUGGCAGAGUGGCUGUGGCUAGACUGCCUCUCUGGAUUCCUCGUCACUCAGCAGGGCGUCUCUGAGAGAAAUGCC [U12C U13C U47A A78G A129G]: the self-cleavage was found to be 1.16.
As for UACGUAGGUGGCUUUCCCCUGAUAGUGCUAAGGGGGCCUGGAAGUUUGGACUGGGCAAAGCUCAACACAGCGUGACAAAGUGGCUGUGGCUAGACUGCCUCUCUGGAUUCCUCGUCACUCAGCAGGGCAUCUCUGAGAGGAAUGCC [U12C G58A G75A A140G], the self-cleavage was 0.08.
The value for UACGUAGGUGGCUCUCCCCUGAUAGUGCUAUGGGGGCCUGGAAGUUUGGACUGGGCAGAGCUCAACACAGCGUGGCAAAGUGGCUGUGGCUAGACUGCCUCUCUGGACUCCUCGUCACUCAGCAGGGCAUCUCUGAGAGAAAUGCC [U12C U14C A31U U108C] was 1.62; that for UACGUAGGUGGCAUUCCCCUGAUAGUGCUAAGGGGGCCUGGGAGUUUGGACUGGGCAGAGCUCAACACAGCGUGGCAAUGUGGCUGUGGCUAGACUGCCUCUCUGGAUUCCUCGUCACUCAGCAUGGCAUCUCUGGGAGAAACGCC [U12C U13A A42G A79U G125U A136G U143C] was 1.47.
The value for UACGUAGGUGGCCUUCCCCUGAUAGUGCUAAGGGGGCCUGGAAGUUUGGACUGGGCAGAGCUCAACACAGCGUGGCAAAGUGGCUGUGGCUAGGCGGCCUCUCUGGAUUCCUCGUCACUCAGCAGGGCAUCUCUGAGAGAAAUGCC [U12C U13C A94G U96G] was 0.
The value for UACGUAGGUGGCUUUCCCCUGAUAGUGCUAAGGGGGCCUGGAAGUUUGGACUGGGCAGAGCUCAACACAGCAUGGCAAAGUGGCUGUGGCUAGGCUGCCUCUCUGGAUUCCUCGCCACUCAGCAGGGCAUCUCUGAGAGAAAUGCC [U12C G72A A94G U115C] was 0.32; that for UACGUAGGUGGCUUUCCCCUGAUAGUGCUAAGGGGGCCUGGAAGUUUGGACUGGGCAGAGCUCAACACAGCGUGGCAAAGUGGCUGUGGCUAGACUGCCUCUCUAGAUUCCUCGUCACUCAGCAGGGCAUCUCCGAGAGAAAUGCC [U12C G105A U134C] was 2.15; that for UACGUAGGUGGCUCUCCCCUGAUAGUGCUAAGGGGGCCUGGAAGUUUGGACUGGGCGGAGCCCAACACAGCGUGGCAAAGUGGCAGUGGCUAGACUGCCUCUCUGGAUUCCUCGUCACUCAGCAGGGCAUCUCUGAGAGAAAUGCC [U12C U14C A57G U62C U85A] was 0.74.
With UACGUAGGUGGCUUUCCCCUGAUAGUGCUAAGGGGGCCUGGAAGUUUGGACUGAGCAGAGCUCAACACAGCGUGGCAAAGUGGCUGUGGCUAGACUGCCUCUCUGGAUUCCUCGUCACUCAGCAGGGCACCUCUGAGGGAAAUGCC [U12C G54A U130C A138G], the self-cleavage was 2.01.
The value for UACGUAGGUGGCUUUCCCCUGAUAGUGCUAAGGGGGCCUGGAAAUUUGGACUGGGCAGAGCUCAACACAGCGUGGCAAAGUGGCUGUGGCCAGACUGCCUCUCUGGAUUCCUCGUCACUCAGCAGGGCAUCUCUGAGAGAAAUGCC [U12C G44A U91C] was 1.01.
As for UACGUAGGUGGCUUUCCCCUGAUAGUGCUAAGGGGGCCUGGAAGUUUGGACUGAGCAGAGCUCAACACAGCGUGGCAAAGUGGCUGUGGCUAGACUGCCUCUCUGGAUUCCUCGUCACACAGCAGGGCAUCUCUGAGAGAGAUGCC [U12C G54A U119A A141G], the figure is 0.96.
As for UACGUAGGUGGCUCUCCCCUGAUAGUGCUAAGGGGGCCUGGAAGUUUGGACUGUGCAAAGCUCAACACAGCGUGGCAAAGUGGCUGUGGCUAGACUGCCUCUCUGGAUUCCUCGUCACUCAGCAGGGCAUCUCUGAGAGAAAUGCC [U12C U14C G54U G58A], the figure is 0.12; as for UACGUAGGUGGCCUUCCCCUGAUAGUGCUAAGGGGGCCUGGAAGUUUGGACUGGGCAGAGCUCAACACAGCGUGGCAAAGUGGCUGUGGCUAGACUGCCCCCCUGGAUUCCUCGUCACUCAGCAGGGCAUCUCUGAGAGAAAUGCC [U12C U13C U100C U102C], 0.
